# Assay results taken from PubChem BioAssay AID493208 (National Center for Advancing Translational Sciences (NCATS), 2011).
# Hit rate of the full screen: of about 44,000 compounds, about 340 (0.77%) were called active. Not shown: some 5% with an inconclusive outcome. Calls come from the whole dose curve; as a rule, active = well fitted inhibition curve with a large enough effect; inconclusive = small, poorly fitted or top-dose-only effect; inactive = flat fitted curve, though single readings scatter. Some of the results follow.
# Test: Acumen qHTS Assay for Inhibitors of the mTORC1 Signaling Pathway in MEF (Tsc2-/-, p53-/-) Cells: Sytravon;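 note: plate controls were DMSO for no effect and rapamycin for full effect; nearly all actives have a fitted effect of over 50% in size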
# Conditions: phospho-rpS6 immunofluorescence/PI, 24 h; series mostly up to 38.3 µM; activity change, negative = inhibition: at the top concentration
# Summary of the method: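 Tsc2-/-, p53-/- mouse embryonic fibroblasts (empty-vector line) exposed to compound 24 hrs at 37 C, fixed, immunostained for phospho-rpS6 and counterstained with propidium iodide. Acumen laser scanning gives % positive cells from Alexa 488/PI ratio, thresholded using 7.5 nM rapamycin; PI count gives viability.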
row,SMILES,"activity change, negative = inhibition"
1,Cc1cccc(-c2nc(CCNC(=O)COc3ccccc3)cs2)c1,inactive: -2.81%
2,COc1ccc(-c2cc(-c3ccccc3)nc(SCC(=O)Nc3ccccc3C)c2C#N)cc1,inactive: 1.13%
3,COc1cccc(CNc2nc3ccccc3c3nc(-c4cccc(C)c4)nn23)c1,inactive: 5.34%
4,CC(=O)c1cccc(NC(=O)Nc2c(C)n(C)n(-c3ccccc3)c2=O)c1,inactive: 3.43%
5,CCOCCCn1c(SCC(=O)Nc2cc(C)ccc2C)nc2c(oc3ccccc32)c1=O,inactive: 0.357%
6,COC(=O)c1ccc(NC(=O)CN2CCCN(Cc3ccc(Cl)cc3)S2(=O)=O)cc1,inactive: 12%
7,CCN1CCc2c(sc(NC(=O)c3ccc(S(=O)(=O)N(CCOC)CCOC)cc3)c2C(N)=O)C1,inactive: 9.69%
8,Cc1ccc(-c2nc3cc(NC(=O)c4cc5ccccc5o4)ccc3o2)cc1Cl,inactive: 4.15%
9,CC(NC(=O)CN1C(=O)COc2ccc(S(=O)(=O)N3CCCCCC3)cc21)c1ccccc1 (centres undefined),inactive: -3.85%
10,Cc1ccc(Sc2c(C(=O)NCc3cccc(F)c3)[nH]c3ccccc23)cc1,inactive: 3.08%
11,CC(C)Oc1ccc(CN2CCc3nc(Nc4ccc5c(c4)OCCO5)ncc3C2)cc1,inactive: 0%
12,COc1ccc(OC)c(NC(=O)CSC2=Nc3ccccc3C3=NC(CCC(=O)NCc4ccccc4)C(=O)N23)c1 (centres undefined),inactive: -0.634%
13,Cc1nc2ccn(Cc3cccs3)c(=O)c2cc1C(=O)NCc1ccc(Br)cc1,inactive: 0.265%
14,O=C(COc1ccc(Cl)cc1)N(Cc1ccco1)Cc1ccco1,inactive: -1.23%
15,Cc1c(C(=O)N(C)C)sc2c1c(=O)n(-c1ccc(Cl)c(Cl)c1)c(=O)n2CC(=O)C(C)(C)C,inactive: 0.167%
16,COc1ccccc1CNC(=O)CCC(=O)N1CC(C)Sc2ccccc21 (centres undefined),inactive: -10.7%
17,Cc1cccc(N2CCN(C(=O)CN3C(=O)COc4ccc(S(=O)(=O)N5CCC(C)CC5)cc43)CC2)c1C,inactive: 0.429%
18,COc1ccc(C(=O)Nc2cccc(-c3cn4ccsc4n3)c2)c(OC)c1,inactive: -6.49%
19,O=S(=O)(Nc1cccc(C(F)(F)F)c1)c1ccc(NS(=O)(=O)c2ccc3c(c2)OCCO3)cc1,inactive: -1.96%
20,Cc1ccc(NC(=O)CSc2nc3ccccc3n2CC(=O)N2CCC(C)CC2)cc1C,inactive: 0%
21,CCc1nn(CC(=O)N2CCC(C)CC2)c(=O)c2cc3occc3n12,inactive: -9.79%
22,CCCN(c1ccc(C(C)C)cc1)S(=O)(=O)c1ccc2c(c1)n(C)c(=O)c(=O)n2C,inactive: -8.7%
23,Cc1csc2nc(COC(=O)c3cccc(NC(=O)c4cccc(Cl)c4)c3)cc(=O)n12,inactive: 0%
24,Cc1ccc(-n2nc3c(N4CCC(C(=O)NC5CCC(C)CC5)CC4)nnc(C)c3c2C)cc1 (centres undefined),inactive: -1.12%

row,SMILES,"activity change, negative = inhibition"
1,CCOc1ccc(N(CC(=O)Nc2cc(OC)cc(OC)c2)S(=O)(=O)c2c(C)[nH]c(=O)[nH]c2=O)cc1,inactive: -14.4%
2,CC1=C(C(N)=O)C(c2cccc(O)c2)n2ncnc2N1 (centres undefined),inactive: -5.74%
3,COc1ccc(Cl)cc1NC(=O)Cn1c(=O)oc2cc(S(=O)(=O)N3CCCCCC3)ccc21,inactive: -0.929%
4,O=C(c1cccs1)c1cn(CCOc2ccc(Cl)cc2)c2ccccc12,inactive: 3.23%
5,Cc1ccc2sc(N(Cc3cccnc3)C(=O)Cc3ccccc3)nc2c1C,inactive: -2.39%
6,Cc1ccc(C(=O)c2cn(Cc3ccccc3F)c3cc4c(cc3c2=O)OCCO4)cc1,inactive: -13%
7,COC(=O)c1ccccc1NC(=O)c1cc(C)nc2c1c(C)nn2-c1ccc(C)cc1,inactive: 3.68%
8,COc1ccc(OC)c(NC(=O)CSC2=Nc3ccccc3C3=NC(CC(=O)NCc4ccc(F)cc4)C(=O)N23)c1 (centres undefined),inactive: -0.554%
9,COc1ccc(C2CC(=O)c3c([nH]c(C(=O)OC4CCCCCC4)c3C)C2)cc1 (centres undefined),inactive: -0.0597%
10,COc1cc(OC)c(NC(=O)n2ncc3cc(Cl)ccc32)cc1Cl,inactive: -1.24%
11,COc1cccc(OCC(=O)NC2CC(=O)N(c3ccc4c(c3)OCCO4)C2)c1 (centres undefined),inactive: -2.22%
12,Cc1ccc(Cl)cc1NC(=O)NCc1cccn1Cc1ccc(F)cc1,inactive: -0.368%
13,O=C(Nc1ccccc1O)c1cc(S(=O)(=O)N2CCCC2)ccc1Cl,inactive: 4.02%
14,Cc1ccc2nc(-c3ccc(NC(=O)c4ccccc4S(C)(=O)=O)cc3)sc2c1,inactive: 3.35%
15,COc1ccc2c(c1)c1c(c(=O)n(-c3ccc(OC)c(OC)c3)c(=O)n1CC(=O)N1CCCC1)n2C,inactive: -0.589%
16,Cc1ccc(CNC(=O)CSc2ncc(S(=O)(=O)c3ccc(C)c(Cl)c3)c(=O)[nH]2)cc1,inactive: 1.54%
17,Cc1ccc(NC(=O)N2CCN(c3nnc(C)c4c(C)n(-c5ccc(Cl)cc5)nc34)CC2)c(C)c1,inactive: -10.2%
18,COc1ccc(-c2nc(C)c(CCNC(=O)c3c(F)cccc3F)s2)cc1,inactive: -7.58%
19,CCOc1ccc(OCC)c(NC(=O)CCc2nc3cccnc3n2Cc2cccs2)c1,inactive: -22%
20,CCOC(=O)c1cccc(NC(=O)CC2C(=O)N(c3ccc(C)cc3)C(=O)N2Cc2cccc(OC)c2)c1 (centres undefined),inactive: -0.951%
21,COc1cc(Cl)c(C)cc1NC(=O)CSc1nc2c(c(=O)[nH]1)CCCC2,inactive: 0.0739%
22,CN(C)c1ccc(CNC(=O)c2cnc3sc(N4CCCCCC4)nn3c2=O)cc1,inactive: -13.5%
23,CCCCNC(=O)CCCn1c(=O)c2ccccc2n(Cc2c(C)cc(C)cc2C)c1=O,inactive: -13.3%
24,COC(=O)N1CCCc2cc(S(=O)(=O)N3CCN(c4ccccc4)CC3)ccc21,inactive: -5.54%

row,SMILES,"activity change, negative = inhibition"
1,Cc1ccc(C)c(Cn2c(=O)n(CCC(=O)NCc3ccc4c(c3)OCO4)c(=O)c3sccc32)c1,inactive: 1.2%
2,Cc1cccc(Cc2c(C)nc3nc(SCc4ccccc4Cl)nn3c2C)c1,inactive: -22.6%
3,COc1ccc(C2CC(=O)Nc3c2c(=O)n(C)c2nc4ccccc4n32)cc1 (centres undefined),inactive: 4.6%
4,COc1ccc(-c2noc(-c3ccc(C)cc3Cl)n2)cc1OC,inactive: 2.25%
5,CCOc1ccc(NC(=O)c2sc3ccccc3c2Cl)cc1,inactive: 2.54%
6,CS(=O)(=O)n1nc(-c2ccco2)nc1NCc1ccccc1Cl,inactive: 2.25%
7,CCOC(=O)c1[nH]c(C)c(C(=O)NCc2cccc(OC)c2)c1C,inactive: 0.0138%
8,COc1ccc(CC(=O)NCCc2csc(-c3ccc(C(F)(F)F)cc3)n2)cc1,inactive: -8.5%
9,CCc1ccccc1NC(=O)Cn1c(=O)n(CC(=O)NCCc2ccccc2)c(=O)c2ccccc21,inactive: -4.05%
10,COc1cc(Cl)c(C)cc1NC(=O)CSc1cc(-c2ccccc2)nc(C)n1,inactive: 0%
11,COC(=O)c1sc2cccc(F)c2c1S(=O)(=O)Nc1ccc(C)cc1Cl,inactive: -11.1%
12,Cc1c(/C=C(\C#N)C(=O)Nc2cccc(Cl)c2)c2ccccc2n1Cc1ccccc1,inactive: -4.04%
13,Cn1c(=O)c2c(SCC(=O)NCc3ccc(F)cc3)nc(-c3ccccc3Cl)nc2n(C)c1=O,inactive: 1.8%
14,Cc1ccc(NS(=O)(=O)c2ccc3c(c2)[C@H]2C=CC[C@H]2[C@@H](c2ccc(F)cc2)N3)cc1C,inactive: -7.47%
15,COc1ccccc1N1CCN(C(=O)CCn2nc(C)c(S(=O)(=O)N3CCCC3)c2C)CC1,inactive: 11.1%
16,O=C(Nc1nnc(C2CC(=O)N(c3ccc(Cl)cc3)C2)s1)c1ccco1 (centres undefined),inactive: -0.986%
17,Cc1ccc(SCc2nc(-c3ccc(C(=O)Nc4cc(C)ccc4C)cc3)oc2C)cc1,inactive: -2.46%
18,O=C(Nc1ccc2[nH]c(=O)c(=O)[nH]c2c1)c1cccc(F)c1,inactive: 1.3%
19,Cc1ccccc1C1=CCN(c2ncc(NC(=O)c3ccc(Cl)cc3)cc2C(=O)O)CC1,inactive: -1.68%
20,Cc1nc2nc(SCC(=O)NCCc3ccc(Cl)cc3)nn2c(C)c1Cc1ccccc1Cl,inactive: -0.156%
21,Cc1nc2c(-c3ccccc3)c(C)nn2c(C)c1CCC(=O)Nc1ccccc1F,inactive: -10.6%
22,CC(=O)c1ccc(N2CCN(C(=O)CCn3cnc4onc(-c5ccc(F)cc5)c4c3=O)CC2)cc1,inactive: -5.88%
23,CCOC(=O)c1ccc(NC(=O)CSc2nccn2-c2cc(C)cc(C)c2)cc1,inactive: -5.58%
24,O=C1CC(c2ccc(F)cc2)c2c(c3ccccc3[nH]c2=O)O1 (centres undefined),inactive: 0.711%

row,SMILES,"activity change, negative = inhibition"
1,CCOc1ccccc1CNCc1c(C(=O)O)n(Cc2ccc(F)cc2)c2cc(C)ccc12,inactive: 7.12%
2,CCn1cc(C(=O)NCCc2ccc(C)cc2)c(=O)c2cc(S(=O)(=O)N3CCc4ccccc4C3)ccc21,inactive: -12.8%
3,O=C(Nc1c(-c2ccccc2)nc2ccccn12)c1ccccc1F,inactive: 4.94%
4,Cc1ccc(-c2noc(-c3cc(-c4ccc(F)cc4)n[nH]3)n2)cc1,inactive: 6.83%
5,Cc1cc(C)cc(NC(=O)CNS(=O)(=O)c2ccc3nc(C)sc3c2)c1,inactive: -0.717%
6,CN1C(=O)Cc2cc(S(=O)(=O)CCC(=O)Nc3ccc(OC(F)(F)F)cc3)ccc21,inactive: 5.79%
7,Cc1ccc(NC(=O)CN2C(=O)c3ccccc3Sc3ccc(C(=O)N4CCOCC4)cc32)c(Cl)c1,inactive: 1.04%
8,CCN(C(=O)C1CCCN(c2ncnc3c2nc2n3CCCCC2)C1)c1cccc(C)c1 (centres undefined),inactive: 0.512%
9,CCOc1ccc(OC(=O)c2c(-c3ccccc3Cl)noc2C)cc1,inactive: 2.34%
10,CCc1cc2c(cc3c(=O)n(CC(=O)NCc4cc(Br)ccc4OC)ncn32)s1,inactive: -8.51%
11,CCN(CC)S(=O)(=O)c1ccc2oc(C(=O)Nc3cc(C)ccc3OC)c(C)c2c1,inactive: 7.98%
12,CCCCNC(=O)CN1C(=O)COc2ccc(S(=O)(=O)N3CCCCCC3)cc21,inactive: -12.1%
13,CCOc1ccc(NC(=O)C2CCN(S(=O)(=O)c3c(C)noc3/C=C/c3cccs3)CC2)cc1,inactive: 3.94%
14,COC(=O)CNC(=O)N1CCN(S(=O)(=O)c2ccc3c(ccn3C)c2)CC1,inactive: -11.5%
15,CCOc1ccc(-c2nnc(SCC(=O)c3ccccc3)n2-c2ccccc2)cc1,inactive: 1.7%
16,Cn1cccc1-c1cc2n(n1)CCC(=O)N2CCCC(=O)NCc1ccc(F)cc1,inactive: -0.858%
17,Cc1ccc(NC(=O)c2ncoc2-c2ccco2)cc1Cl,inactive: 8.21%
18,Cc1cccc(C)c1NC(=O)Cn1c(SCC(=O)NCc2ccccc2)nc2ccccc21,inactive: 1.41%
19,Cc1cc(=O)[nH]c2nnc(SCc3ccc(C(F)(F)F)cc3)n12,inactive: 0.606%
20,CCOC(=O)c1[nH]c(C)c(CCC(=O)Nc2cccc(SC)c2)c1C,inactive: -5.17%
21,COc1ccc2cc(CNc3ccc(OC)c(OC)c3)c(=O)n(CC(=O)Nc3ccccc3F)c2c1,inactive: 1.28%
22,O=C(Nc1cc2ccc(O)cc2oc1=O)c1ccccc1,inactive: -18.7%
